Measurements published in PubChem BioAssay AID463173 (ICCB-Longwood Screening Facility, Harvard Medical School, 2010).
Hit rate of the full screen: of about 52,000 compounds, about 1,700 (3.3%) were called active. Cut-off read from the data, not from the text of the source: active = survival mostly below about 52% (no sharp cut-off); inactive = mostly above about 56%. The list shows a part of the results.

system: Wild type; assay: growth inhibition of S. aureus wild type versus tarO mutant, primary screen, teichoic acid synthesis inhibitors, RN4220, OD600 (AID 463173); details: S. aureus RN4220 wild type/DeltatarO growth, OD600, 18 h, active compounds read low, screened at 18.75 µg/mL (by protocol)

Row | Structure (SMILES) | survival
1 | Cc1ccccc1NC(=O)CSc1cn(CC(=O)N(C(C)C)C(C)C)c2ccccc12 | inactive: 82%
2 | COc1cc2c(cc1OC)C(COc1ccc3c(C)cc(=O)oc3c1)N(C(=O)c1ccccc1F)CC2 (stereo not drawn) | inactive: 64%
3 | COc1cc2c(cc1OC)n(Cc1ccc([N+](=O)[O-])cc1)c(=O)n1nc(-c3ccccc3)nc21 | inactive: 135%
4 | O=C(NCc1ccccc1Cl)C1CCCN(C(=O)c2cnn(-c3ccc(F)cc3)c2-n2cccc2)C1 (stereo not drawn) | inactive: 93%
5 | CCOC(=O)c1c(C)oc2ccc(OCC(N)=O)cc12 | inactive: 108%
6 | Cc1cccc(N2CCN(C(=O)c3cnc4c(C)cccn4c3=O)CC2C)c1 (stereo not drawn) | active: 0%
7 | O=C(COc1cccc(Cl)c1)N1CCC(c2nc3ccccc3o2)CC1 | inactive: 72%
8 | CCOc1ccc(NC(=O)CSc2nc3c([nH]c4ccccc43)c(=O)n2-c2cc(C)cc(C)c2)cc1 | inactive: 72%
9 | COC(=O)c1cc2c(ccn2-c2ccc(F)cc2)n1C(C)C | inactive: 107%
10 | CC(C)c1ccc(NC(=O)N2CCN(c3ccc(Cl)c(Cl)c3)CC2)cc1 | inactive: 101%
11 | Cc1nc2c(-c3ccccc3)c(C)nn2c(C)c1CCC(=O)NCCc1ccccc1 | inactive: 73%
12 | Cc1ccc(N2CCN(C(=O)c3c(C)oc4ncnc(N5CCCCC5)c34)CC2)c(C)c1 | inactive: 73%
13 | O=C(NC1CC(=O)N(c2ccc(Cl)cc2)C1)C1CCCC1 (stereo not drawn) | inactive: 71%
14 | CCSc1nc2ccccc2c(=O)n1CCOC | inactive: 105%
15 | CCOC(=O)c1c(C)oc2c1cc(NS(=O)(=O)c1ccc(C)cc1)c1ccccc12 | inactive: 86%
16 | CCC(C)NC(=O)c1ccc2c(c1)nc1n2CCCCC1 (stereo not drawn) | inactive: 81%
17 | O=C(Nc1cccnc1N1CCOCC1)c1cc2ccccc2oc1=O | inactive: 100%
18 | COc1ccc(NC(=O)CSc2nc3c(oc4ccccc43)c(=O)n2-c2ccccc2)cc1OC | inactive: 89%
19 | CC(C)(C)OC(=O)N1CCC(c2c(C(=O)NCc3ccccc3)cnn2-c2ccc(F)cc2)CC1 | inactive: 133%
20 | CCC(=O)N1c2ccccc2C(C)(c2ccccc2)CC1(C)C (stereo not drawn) | active: -3%
21 | CN1CCN(C(=O)c2ccc3c(c2)N(Cc2ccc(F)cc2)C(=O)c2ccccc2S3=O)CC1 (stereo not drawn) | inactive: 89%
22 | C=CCNc1nc(N2CCCCC2)nc(N2CCCCC2)n1 | inactive: 109%

Row | Structure (SMILES) | survival
23 | O=C(CSc1nc(-c2ccccc2)no1)N1CCN(c2ccccc2)CC1 | inactive: 78%
24 | CCOc1ccccc1NC(=O)c1cc(S(=O)(=O)N2CCOCC2)cn1C | inactive: 87%
25 | Cc1ccc(NC(=O)c2cc(S(=O)(=O)N3CCCCCC3)ccc2F)cc1F | inactive: 148%
26 | CCN1CCc2c(sc(-n3cccc3)c2C(C)NC(=O)Nc2cc(Cl)c(OC)cc2OC)C1 (stereo not drawn) | inactive: 72%
27 | CC1(C)CC(=O)c2cc(-c3nc(-c4ccc(Cl)cc4)cs3)c(=O)[nH]c2C1 | inactive: 78%
28 | CC(C)Oc1ccc(NC(=O)c2cc3ccccc3o2)cc1 | inactive: 86%
29 | Cc1sc2c(c1C)c(=O)n(Cc1ccccc1)c(=O)n2CC(=O)N(C)c1ccccc1 | inactive: 89%
30 | CCCNC(=O)c1cnn2c(C(F)F)cc(-c3ccccc3)nc12 | inactive: 65%
31 | COc1ccc(CCNc2oc(COc3cccc(C)c3)nc2C#N)cc1OC | inactive: 110%
32 | CCOc1ccc(Nc2nc3c(S(=O)(=O)c4ccc(CC)cc4)nnn3c3ccc(Cl)cc23)cc1 | inactive: 89%
33 | CC1CCN(S(=O)(=O)c2ccc3c(ccc(=O)n3CC(=O)NCc3ccc(Cl)cc3)c2)CC1 | inactive: 59%
34 | COc1ccc(-c2nc(Cn3c(=O)cc(-c4ccccc4)c4c(C)nn(C)c43)c(C)o2)cc1OC | inactive: 80%
35 | CC(=O)N1CCc2cc(Br)cc(S(=O)(=O)NCCc3ccc(Cl)cc3)c21 | inactive: 75%
36 | CC(=O)c1cccc(NC(=O)CCc2nc3cccnc3n2Cc2cccs2)c1 | inactive: 80%
37 | CCOC(=O)CSc1nc(-c2ccc(F)cc2)cc(C(F)(F)F)c1C#N | inactive: 71%
38 | O=C(c1cccn1-c1nnc(N2CCCCC2)s1)N1CCN(c2ccc(Cl)cc2)CC1 | inactive: 73%
39 | COc1ccc(CCNc2nc3ccc(C)cc3n3cnnc23)cc1OC | inactive: 87%
40 | Cc1cc(C)cc(NC(=O)C(CC(C)C)NC(=O)C2CCCCC2)c1 (stereo not drawn) | inactive: 69%
41 | CN(C)c1ccc(C(=O)Nc2c(C(=O)NC(C)(C)C)oc3ccccc23)cc1 | inactive: 65%
42 | CC(C)Oc1ccc(CNC(=O)c2ccc3nc(C(C)C)oc3c2)cc1 | inactive: 132%
43 | COc1ccc(S(=O)(=O)N(CC(=O)Nc2cc(C)cc(C)c2)c2ccc(Cl)cc2)cc1 | inactive: 94%
44 | CCn1c(C(=O)N2CCC(C(=O)N3CCN(c4ccc(OC)cc4)CC3)CC2)cc2sccc21 | inactive: 62%

Row | Structure (SMILES) | survival
45 | COc1ccc(Cl)cc1N=C1NC(=O)CC(C(=O)Nc2ccccc2C(F)(F)F)S1 (stereo not drawn) | inactive: 71%
46 | CCc1ccccc1N1CC(c2nc3ccccc3n2CCOc2ccc(Cl)c(C)c2)CC1=O (stereo not drawn) | active: 2%
47 | Cc1ccn2cc(-c3cccc(NC(=O)CCC(=O)O)c3)nc2c1 | inactive: 120%
48 | CCNc1nc(NC(C)(C)C)nc(Oc2ccc(=O)n(-c3ccccc3)n2)n1 | inactive: 76%
49 | CCc1nn2c(=O)cc(COC(=O)c3ccc4c(c3)OCO4)nc2s1 | inactive: 71%
50 | O=C(NCCn1cc(SCc2ccccc2)c2ccccc21)c1cccs1 | inactive: 69%
51 | CCCc1cc(=O)[nH]c(Nc2ccccc2O)n1 | inactive: 86%
52 | COc1ccc(-c2nc3scc(CCNS(=O)(=O)c4c(C)cc(C)cc4C)n3n2)cc1OC | inactive: 100%
53 | CC(=O)c1c(C)n(-c2ccc(Cl)cc2)c2ccc(OC(=O)COc3ccccc3)cc12 | inactive: 87%
54 | CC(=O)c1cccc(NC(=O)c2ccc(Cl)c(S(=O)(=O)N3CCOCC3)c2)c1 | inactive: 72%
55 | Cc1cc(C)cc(C(=O)Nc2cccc(-c3nc4ncccc4o3)c2C)c1 | inactive: 76%
56 | COc1ccccc1CNC(=O)CCCCn1c(=O)c2ccccc2n(Cc2ccccc2C)c1=O | inactive: 99%
57 | CC(C)(C)C1CCc2c(sc(NC(=O)c3ccccc3F)c2C(=O)NCc2ccco2)C1 (stereo not drawn) | inactive: 70%
58 | CCN(C(=O)c1ccc(Br)cc1)c1ccccc1 | inactive: 105%
59 | COc1ccc(C2=NS(=O)(=O)N(C)C(C(=O)Nc3ccc(OC(F)(F)F)cc3)=C2)cc1 | inactive: 55%
60 | CCOC(=O)c1cc2c(=O)n3ccccc3nc2n(CCOC)c1=NC(=O)c1cc2ccccc2o1 | inactive: 62%
61 | c1ccc(N2CCN(Cc3nnc(-c4ccc5c(c4)OCO5)o3)CC2)cc1 | inactive: 81%
62 | CC(C)Oc1ccc(C(=O)NCc2cccnc2)cc1 | inactive: 111%
63 | Cc1nn(-c2ccc(N3CCCC3)nn2)c(C)c1CCC(=O)NCc1ccccc1 | inactive: 77%
64 | CN1C(=O)c2ccccc2N(C)C1c1cccs1 (stereo not drawn) | inactive: 117%
65 | CN(Cc1ccccc1)S(=O)(=O)c1nnc(NC(=O)c2ccccc2Cl)s1 | inactive: 41%
66 | CC(NC(=O)CCCN1C(=O)CCn2nc(-c3cn(C)c4ccccc34)cc21)c1ccccc1 (stereo not drawn) | inactive: 72%

Row | Structure (SMILES) | survival
67 | O=C(CSc1nnc(-c2cccnc2)o1)N(C1CCCCC1)C1CCCCC1 | inactive: 109%
68 | COc1cccc(-c2ccc3c(N)c(C(=O)c4ccc(F)cc4)sc3n2)c1 | active: 10%
69 | COc1ccc(CNc2ncnc3c2cnn3-c2ccc(Cl)cc2)cc1 | inactive: 70%
70 | CCOC(=O)c1c(C)oc2nc(C)nc(NCC3CCN(Cc4ccc(F)cc4)CC3)c12 | inactive: 135%
71 | Cc1ccc(CSC2=Nc3ccccc3C3=NC(CCC(=O)NCc4cccs4)C(=O)N23)c(C)c1 (stereo not drawn) | inactive: 88%
72 | COc1ccc(Nc2ccc3cc(S(=O)(=O)N4CCCC4)ccc3n2)cc1OC | inactive: 69%
73 | O=C(Nc1ccc(Cl)c(-c2nc3ccccc3o2)c1)c1cccc2c(Cl)cccc12 | inactive: 67%
74 | CCC(Oc1ccccc1)C(=O)N1CCN(Cc2cc(=O)n3nc(-c4cccc(C)c4)sc3n2)CC1 (stereo not drawn) | inactive: 120%
75 | Cc1cc(N2CCN(C)CC2)nc2ccc(NC(=O)Nc3ccc(F)cc3F)cc12 | inactive: 69%
76 | CCOC(=O)c1ccc(N2CCN(c3cc(Cl)ccc3C)CC2)c(NC(=O)Nc2ccc(OCC)cc2)c1 | inactive: 57%
77 | Fc1ccc(-c2nc3c4c(-c5ccccc5)c(-c5ccccc5)oc4ncn3n2)cc1 | inactive: 95%
78 | COc1cc(Cl)c(NC(=O)CC(C)S(=O)(=O)c2cc3c(cc2C)NC(=O)CO3)c(OC)c1 (stereo not drawn) | inactive: 68%
79 | Cc1ccc(NS(=O)(=O)c2c(C)nc3sccn3c2=O)c(Cl)c1 | inactive: 131%
80 | Cc1cc(OCc2nnc(SCC(=O)OC(C)C)o2)ccc1Cl | inactive: 112%
81 | Cc1ccc(-n2c(=O)c3c(c4cc(C)ccc4n3C)n(CC(=O)NCC3CCCO3)c2=O)cc1 (stereo not drawn) | inactive: 84%
82 | CC1=C(C(=O)Nc2ccccc2)C(c2ccco2)C(C#N)=C(SCC(=O)Nc2ccccc2)N1 (stereo not drawn) | inactive: 114%
83 | Cc1ccc(NC(=O)CSc2nncn3c2cc2sccc23)cc1F | inactive: 74%
84 | CCCCOC(=O)c1ccc(NC2=NS(=O)(=O)c3ccccc32)cc1 | inactive: 78%
85 | Cc1nn(-c2ccc(N3CCCC3)nn2)c(C)c1CCC(=O)Nc1ccccc1 | inactive: 92%
86 | Cc1cccc(NC(=O)CCn2nc(C)c3c(C)n(-c4ccccc4)nc3c2=O)c1C | inactive: 65%
87 | CC(C)c1ccc(NC(=O)c2cc(S(=O)(=O)N3CCc4ccccc4C3)ccc2F)cc1 | inactive: 128%
88 | Cc1ccc(-c2nc3n(n2)C(=O)CC(c2ccc(C)cc2)S3)cc1 (stereo not drawn) | inactive: 92%
